# Laboratory results published in the supplement of paper PMC4166925.
# ± gives the standard deviation of the averaged measurements. The full ranking holds about 33,000 sequences; the median of “E-score (dimensionless, -0.5 to 0.5)” is about -0.049, and the highest 2% start at about 0.37. The list shows a part of the results.
# System: T1, PmTbr T-box DNA-binding domain (GST fusion)
# T1 sequence: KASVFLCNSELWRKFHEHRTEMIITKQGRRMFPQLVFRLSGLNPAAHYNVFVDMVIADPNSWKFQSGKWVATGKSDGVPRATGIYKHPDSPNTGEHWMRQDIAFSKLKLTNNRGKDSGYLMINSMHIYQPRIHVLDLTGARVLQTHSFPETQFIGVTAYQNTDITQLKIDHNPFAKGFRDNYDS
# Assay: PBM E-score of 8-mer (E-score (dimensionless, -0.5 to 0.5)); Tbr is Tbrain of the sea star Patiria miniata (Pm) or the sea urchin Strongylocentrotus purpuratus (Sp); higher = stronger binding preference; most listed sequences are background and not binding sites
# Settings: the construct has about 5 more residues each side
# Experimental: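 Universal protein-binding microarray (Agilent AMADID 016060, 60-bp probes with a 35-bp variable region) incubated with 200 nM GST-fused Patiria miniata Tbr T-box DNA-binding domain (residues 272-466) in PBS pH 7.5. Scored for every ungapped 8-mer (given with its reverse complement) by the Universal PBM Analysis Suite as E-score (modified Wilcoxon-Mann-Whitney enrichment, range -0.5 to 0.5; >0.45 counts as bound) and Z-score of median probe intensity. Two replicate arrays (datasets 1 and 2).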
# 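Note: 200 nM protein in PBS on universal arrays averaged over duplicate arrays.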
row,Sequence,PBM E-score of 8-mer
1,ACGCTAGA,-0.00085 ± 0.045
2,ACCGAGGA,-0.0718 ± 0.0034
3,AGTATGTA,-0.113 ± 0.014
4,ATCAAGTA,-0.121 ± 0.063
5,TAGTAAAA,-0.0773 ± 0.045
6,CCATACGA,-0.0968 ± 0.053
7,ACAATCTG,-0.11 ± 0.014
8,TATCCTAA,-0.0501 ± 0.021
9,AAGCAGTC,-0.167 ± 0.023
10,ACACCGGC,0.193 ± 0.027
11,CGACTGTA,-0.111 ± 0.014
12,GAATTGCA,0.0307 ± 0.043
13,CCAGCTCC,-0.183 ± 0.017
14,ATACCTAC,-0.172 ± 0.0048
15,GATGACCC,0.111 ± 0.006
16,ACTCGAAC,-0.0874 ± 0.031
17,AGACTGCG,0.00438 ± 0.053
18,CTATGGAG,-0.138 ± 0.041
19,TATTCTGA,-0.0175 ± 0.054
20,AAGTTTAC,-0.00735 ± 0.051
21,ATAGTTTA,-0.3 ± 0.017
22,CTAGACGA,0.00336 ± 0.051

row,Sequence,PBM E-score of 8-mer
1,GCTTGAGA,-0.103 ± 0.046
2,AGTACGGC,-0.144 ± 0.057
3,AGACTGGG,-0.261 ± 0.012
4,ACACCGGG,0.132 ± 0.028
5,ATAAAGCA,-0.067 ± 0.091
6,ATATCAAG,-0.0732 ± 0.11
7,AGATGTAA,0.00792 ± 0.061
8,CCCCTGAG,-0.0747 ± 0.052
9,CATACAGG,-0.17 ± 0.0088
10,ACTGAGGG,0.0207 ± 0.066
11,CTATCATC,0.0965 ± 0.015
12,CGGTCCAA,-0.148 ± 0.0024
13,AGGAACTA,-0.0348 ± 0.016
14,ATAGGAAG,-0.24 ± 0.0037
15,ATGCCAGG,0.0213 ± 0.052
16,CGTGATCA,0.115 ± 0.0037
17,AATCGTTA,0.0624 ± 0.03
18,TCCACGGA,-0.0781 ± 0.017
19,ATATGCCC,-0.143 ± 0.0056
20,GGCGCTGA,0.1761 ± 0.0012
21,ATCATGGC,0.112 ± 0.074
22,ACATGTCG,0.198 ± 0.011

row,Sequence,PBM E-score of 8-mer
1,GTTTTCAA,-0.0894 ± 0.055
2,GGAGCATA,-0.0893 ± 0.017
3,ACTTGGTC,-0.0302 ± 0.035
4,ACTATGGG,0.0361 ± 0.038
5,CCGCCACG,0.101 ± 0.11
6,CACCGTTC,0.0184 ± 0.018
7,AGTCGTCC,-0.273 ± 0.017
8,AAGCATAC,-0.113 ± 0.017
9,ACTGCCAC,0.221 ± 0.031
10,GAAGTTTA,-0.0984 ± 0.028
11,AGTCGGCG,-0.0177 ± 0.013
12,ACTCGTGC,0.231 ± 0.026
13,GAGGGATC,0.0247 ± 0.014
14,GACGACTC,-0.0256 ± 0.066
15,CCCAACGA,-0.174 ± 0.0069
16,ACCTTAGT,-0.0859 ± 0.028
17,CCAACGCA,-0.0864 ± 0.045
18,TAAGCAGA,-0.0743 ± 0.051
19,AGACCTCA,0.0571 ± 0.053
20,AGGACTCA,-0.12 ± 0.047
21,AACCTGAC,0.111 ± 0.026
22,AGGTACTC,-0.00173 ± 0.059

row,Sequence,PBM E-score of 8-mer
1,ACCTGCGG,0.151 ± 0.046
2,CGCATGCC,-0.192 ± 0.061
3,CACGATCA,0.148 ± 0.016
4,ATGGCTCA,-0.0311 ± 0.0022
5,AATGTCCT,-0.216 ± 0.043
6,AGCTGAAA,-0.105 ± 0.11
7,GTAGGCCA,-0.196 ± 0.081
8,CAGTGGCG,0.231 ± 0.056
9,AGATGCTC,-0.155 ± 0.039
10,ACGTGTTG,0.3744 ± 0.0004
11,CGTCCCAG,-0.151 ± 0.0033
12,CGACATAA,-0.0322 ± 0.096
13,GAAGTTGC,0.184 ± 0.041
14,ACCGATGG,-0.16 ± 0.041
15,AGCTATAC,-0.177 ± 0.053
16,CTCGCAGC,0.176 ± 0.0099
17,GATAACAA,0.212 ± 0.042
18,GATGGCCC,-0.138 ± 0.0089
19,GAAGACTA,-0.157 ± 0.029
20,GCTACTTA,-0.129 ± 0.039
